From the supplement of paper PMC11417369
This is one part of the list.

System: PfAP2-HC AP2 domain (GST-tagged)
Test: gcPBM binding intensity (ln(normalized median fluorescence intensity)); higher = stronger DNA binding
In short: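 The highest Masliner-normalised natural-log median intensity across replicate spots of either probe orientation is reported as binding intensity. GST-tagged P. falciparum DNA-binding domains expressed in E. coli were applied for 1 h to an Agilent 4 × 180k array of primer-extended double-stranded 36-bp intergenic genomic probes plus negative controls, and bound protein was detected with Alexa488 anti-GST antibody and scanned at 488 nm.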

Row | Sequence | gcPBM binding intensity (ln)
1 | AAAAAAAAAAAAAACACACATACACATATATTTTTA [CACACA_site3893] | 9.76
2 | TATAAATATAAAAGGAGTACAAATATATATATATAT [XGTACX_site1386] | 10.1
3 | AGTTATAATAAAAAATGTACGTATTATCATTAAGAA [XGTACX_site4244] | 9.79
4 | TTTTTTTTTATAGCTAAACACACATAAGAATATATG [CACACA_site8282] | 9.61
5 | TCCTAATATATGTATGCACACACAATATATACATAT [CACACA_site9111] | 10.1
6 | GAAAATAAAAAATATGAACACACATATATAACAAAA [CACACA_site7975] | 10.5
7 | AAAAAAATTAAACATACACACGTTACTATTTTTATA [CACACA_site5009] | 9.84
8 | TTATTAATTTATAAATGTACGAATTTTTTATTTAAC [XGTACX_site7605] | 9.29
9 | CATATCAATAATATCACACATATATGTGATTTTATT [CACACA_site5053] | 9.7
10 | CCCCTTAATTAAAGGAGTACTATTTGTGAATAATAT [XGTACX_site4715] | 9.69
11 | TTTATGTAGGAACTAACACACATTGTAAGATTCAGA [CACACA_site1998] | 9.69
12 | GGAACTTTTGGAGGTGCATGCGGAGCAATCTTTTCA [TGCATGCA_site454] | 9.49
13 | TTTAAACCTTAATATTGTACGCAAAAAAAAAAAGAA [XGTACX_site3757] | 9.59
14 | TATTAATAATTAAGTTGTACATTAATTAATATACTG [XGTACX_site6994] | 9.4
15 | TTTAATATTAATAATTGTACATTTTCATAAATACGC [XGTACX_site2837] | 9.51
16 | AGGACAAGGGTTACATGTACATATATATATATATAT [XGTACX_site901] | 10.6
17 | CCTAGAAAAAAGAACTGTACATATATATATAAATAT [XGTACX_site1680] | 9.54
18 | TTAATTGAAACTTATTGTACTTTTTTTTTTTTTTTT [XGTACX_site8162] | 9.3
19 | ATAAATAAAAATAGAACACACATATGTTTTTTTTTT [CACACA_site3556] | 9.77
20 | ATATGCAGAGACTGTTTGCACTTTTTTATTTTATGT [GTGCAC_site9695] | 9.9
21 | TGAAAAAATATAATTTGTACATATCAGGCAAAAATG [XGTACX_site1824] | 9.77
22 | CTCAAATTTATTAGTGGTACATAACCAAGGAAATAA [XGTACX_site225] | 9.68
23 | ATTATAATTACTCTAGTGCATTATAAATATGAATAA | 9.45

Row | Sequence | gcPBM binding intensity (ln)
24 | AAGTTATTTATATATACACACAAATATAAATAATAT [CACACA_site1228] | 9.83
25 | ATAAATTATATTATTGAACACACGTTTGGTAATGTT [CACACA_site2662] | 9.88
26 | AAAAAAATAATAAAAAGTACAAAATGTAGAAAATGT [XGTACX_site5018] | 10.1
27 | AAAAAATAAAACATATATAATATATAATATATATAT [GTGCAC_negctrl_site447] | 9.65
28 | AATGTGAAAACGTGTACACATTTTATTTAATTTATC [CACACA_site5966] | 9.78
29 | ATATATATTATATATTGTACATATTATATTCATTAT [XGTACX_site1766] | 9.72
30 | TTTATTAATTTATAGTGTACATATTAATAATATATT [XGTACX_site7949] | 9.6
31 | GATTATACAAAATATACACACGTGTACAGAAATATT [CACACA_site8305] | 10.1
32 | ATATATTTATTTATATGTACATATTATATATTATAG [XGTACX_site3371] | 9.75
33 | TTATATTAATTTTGTTGTACTATTTGTGCATTAAAT [XGTACX_site4790] | 9.62
34 | CACAGACACGGACACACACACATATATAATATATAT [CACACA_site4495] | 10.8
35 | AAGATATGAACATTTTGTACTTAAAAATTCAATATT [XGTACX_site7103] | 9.55
36 | TAAACAAATAAATATTGTACATTTTTTCCTTTTAAT [XGTACX_site5594] | 9.57
37 | TTTATATAAAATTATTGTACAGTTTTAATATTTTAA [XGTACX_site6807] | 9.32
38 | AAGGATAATATATTAGAACACACATATATATGTAAA [CACACA_site7942] | 9.98
39 | TACATACACAAATACACACACAAATACATACACAAA [CACACA_site704] | 10.6
40 | ACATTTTATATATGTAGTACATATTATAGATAATTT [XGTACX_site1976] | 9.61
41 | AGTTGGATACGAAGATGTACAATAATAATAATTAAG [XGTACX_site3561] | 9.67
42 | ATCAAAAACATACCTACACACACAATATGTATATAT [CACACA_site9171] | 10.1
43 | TATTTTATTTTTTTATGTACACAAAAAAAAAAAAAA [XGTACX_site945] | 9.11
44 | TCACTATAATAATTTACACACATTTTAAGAAAATGG [CACACA_site5867] | 9.6
45 | TATTATGTTTATTAAACATGCATATATTTATTTATA [TGCATGCA_site187] | 9.55
46 | ATATTTTATCATGTTTAATATTTATGTGGACATAAA [GTGCAC_negctrl_site275] | 9.33

Row | Sequence | gcPBM binding intensity (ln)
47 | TACAATCCATATTGTTGTACATTTATAAAATTTACA [XGTACX_site3053] | 9.46
48 | CAATGGTACATACATACACACACACTAATAAAAAAA [CACACA_site8450] | 10.5
49 | GTATATATATAAGAAGAAATATATAAATAAAATATA [CACACA_negctrl_site503] | 9.73
50 | GCTTATTAATATCATACACACATAGATATATTTATA [CACACA_site3104] | 9.78
51 | ATTCGTCACATTTTTTGATATATATATATATATATA [CACACA_negctrl_site1785] | 9.77
52 | AATATATAAATGTTGTGTACTAAGCAATATATTTTA [XGTACX_site2483] | 9.66
53 | TAAAAAATATAAACTGCACACACACTAATAAAGAAA [CACACA_site8119] | 11.1
54 | ATATAGTTGTCATATTGTACACTTTAGGGTTGGTTA [XGTACX_site7339] | 9.72
55 | CTATTATCGGTTCCTACACACAAATATATATGTCTA [CACACA_site3579] | 10.2
56 | ACGAATATAGGATGTTTGCACTGTACCAATAAATGA [GTGCAC_site9808] | 9.66
57 | ACCTATTTCAAACACACACACACACCCACAAACATA [CACACA_site977] | 10.9
58 | TTCTTAATACAAATATGTACATATATATATATATAT [XGTACX_site757] | 9.85
59 | GATGTGTAAATAAGGATATATAACAATCAACAAAAC [XGTACX_negctrl_site494] | 9.88
60 | TCATTTTAAGGAAAAAGTACAAAATAATATGTTCCT [XGTACX_site1903] | 9.31
61 | AATAGAAAAAAAAAATGTACAAAATGTTTATAAAAA [XGTACX_site4635] | 9.79
62 | AAATGAATATAAAATATACACACTTATATATTGAAT [CACACA_site202] | 9.82
63 | AAATTACCCTTGTGTACACATATATTATCTGTATTA [CACACA_site4514] | 9.94
64 | AAAAAATTTTAATATGCATGTAATTTTGCTTTTTCA [TGCATGCA_site1044] | 9.47
65 | AGCACGCACAGACACACACACATATTTATATTTATA [CACACA_site6291] | 10.3
66 | TAATATAGGGGTGTTCAAATAAATTTTGTTATTTTT [CACACA_negctrl_site1203] | 9.8
67 | GAAGGAAATAAATCAACACACATATATTATAGATAT [CACACA_site7095] | 10
68 | ATAATGTAAAATAAATGTACGCAATATATAAAAAAT [XGTACX_site5747] | 10.1
69 | TATTGAAAGTGAATTATAACATTAAAAATATATATA [TGCATGCA_negctrl_site566] | 9.59

Row | Sequence | gcPBM binding intensity (ln)
70 | TGAATATGTAAATGCACACCAAAAAAAAAAAAAAAA [CACACA_site3566] | 9.44
71 | CAATATAAAAGACACACACACAAACATATATTTATA [CACACA_site7697] | 11.3
72 | AAAATAAAAAAAATGAATTAGTTAAATGAAAAATAA [CACACA_negctrl_site1294] | 9.62
73 | TTTCTTTTTTTGGGCACACAAAATTTTCTCATTTTA [CACACA_site68] | 9.92
74 | ATTATATAATAATGCATGCACCTTATTTTCATTTCA [GTGCAC_site9922] | 9.71
75 | TATCTTCATATATGGTGTACAGATTTTTTTTTTTTT [XGTACX_site5545] | 9.66
76 | ATAAAATTATTATATACATGCAAAATTAATATATTG [TGCATGCA_site507] | 9.59
77 | AAATAGAAAAAATATACACACACTTATTAAATAAAA [CACACA_site3313] | 10.1
78 | AAATAATAAAGTATAACACACATATTTATTTATATA [CACACA_site7822] | 9.77
79 | AAAATTAAAAAAATATGTACTTATGGGTAACATCAT [XGTACX_site5548] | 9.58
80 | CTGATATATTATTTATCTGAATATATTAATATGTAT [GTGCAC_negctrl_site82] | 9.53
81 | GTTATACATTTGAAAAGTACTCATGATTTTTTTTTT [XGTACX_site8177] | 9.61
82 | AATATTCAATATAAAGTGCATTATTGTGCCCCTAAT | 9.44
83 | TTTTTATTGTTATACTTATATTATTTTATGATTAAA [XGTACX_negctrl_site262] | 9.51
84 | ATAAAAATCAAAAAAAATACATAATAGTAATAATAA [GTGCAC_negctrl_site481] | 9.79
85 | TTTTTTTTTTTTTGGGGTACATTTTAATTAATATTA [XGTACX_site4866] | 9.61
86 | TAAAATATAATTAGCACACATATATAAAATATATAT [CACACA_site4093] | 9.67
87 | GTTCAAAATATGAACACACACATATATATATATATA [CACACA_site2057] | 10.1
88 | ATCTACATATATTATTGTACATTGTTAAAAATTTAT [XGTACX_site7769] | 9.67
89 | TTTCGTAATATGCGTGTGCACAATGAGTCCATATCT | 10
